Among all 220,000 compounds or so, about 5,700 (2.6%) were called active. This list was built around the results that the source calls inconclusive (neither active nor inactive); the mix of calls is not that of the screen. Calls come from the whole dose curve; as a rule, active = well fitted inhibition curve with a large enough effect; inconclusive = small, poorly fitted or top-dose-only effect; inactive = no such curve, though single readings can be large or run the other way. Potencies beside an inconclusive call are fits to weak or partial responses and may not hold up.
biological target: Lysine-specific demethylase 5B (Homo sapiens) (UniProt Q9UGL1); test: Primary screen for KDM5B Histone Demethylases FDH-coupled qHTS; conditions: FDH-coupled NADH fluorescence (FDH is formaldehyde dehydrogenase); activity change, negative = inhibition: at 57.7 µM (top of the series) unless noted; note: nearly all actives have a fitted effect of over 70% in size; for activity change, negative = inhibition: 0% is about no effect
Method in brief: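 KDM5BΔAP (200 nM final) in 50 mM HEPES pH 7.5, 0.01% Tween-20 was preincubated 10 min at RT with compound over a concentration range. Substrate mix (H3K4me3 12.5 µM, α-KG 25 µM, Fe²⁺, ascorbate, NAD⁺, FDH) was added, and NADH fluorescence change over 30 min gave dose-response curves.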
Potency is the fitted concentration of half-maximal effect; tags give direction and shape of the fitted curve.

UniProt Q9UGL1, sequence (Q9UGL1 whole entry, looked up): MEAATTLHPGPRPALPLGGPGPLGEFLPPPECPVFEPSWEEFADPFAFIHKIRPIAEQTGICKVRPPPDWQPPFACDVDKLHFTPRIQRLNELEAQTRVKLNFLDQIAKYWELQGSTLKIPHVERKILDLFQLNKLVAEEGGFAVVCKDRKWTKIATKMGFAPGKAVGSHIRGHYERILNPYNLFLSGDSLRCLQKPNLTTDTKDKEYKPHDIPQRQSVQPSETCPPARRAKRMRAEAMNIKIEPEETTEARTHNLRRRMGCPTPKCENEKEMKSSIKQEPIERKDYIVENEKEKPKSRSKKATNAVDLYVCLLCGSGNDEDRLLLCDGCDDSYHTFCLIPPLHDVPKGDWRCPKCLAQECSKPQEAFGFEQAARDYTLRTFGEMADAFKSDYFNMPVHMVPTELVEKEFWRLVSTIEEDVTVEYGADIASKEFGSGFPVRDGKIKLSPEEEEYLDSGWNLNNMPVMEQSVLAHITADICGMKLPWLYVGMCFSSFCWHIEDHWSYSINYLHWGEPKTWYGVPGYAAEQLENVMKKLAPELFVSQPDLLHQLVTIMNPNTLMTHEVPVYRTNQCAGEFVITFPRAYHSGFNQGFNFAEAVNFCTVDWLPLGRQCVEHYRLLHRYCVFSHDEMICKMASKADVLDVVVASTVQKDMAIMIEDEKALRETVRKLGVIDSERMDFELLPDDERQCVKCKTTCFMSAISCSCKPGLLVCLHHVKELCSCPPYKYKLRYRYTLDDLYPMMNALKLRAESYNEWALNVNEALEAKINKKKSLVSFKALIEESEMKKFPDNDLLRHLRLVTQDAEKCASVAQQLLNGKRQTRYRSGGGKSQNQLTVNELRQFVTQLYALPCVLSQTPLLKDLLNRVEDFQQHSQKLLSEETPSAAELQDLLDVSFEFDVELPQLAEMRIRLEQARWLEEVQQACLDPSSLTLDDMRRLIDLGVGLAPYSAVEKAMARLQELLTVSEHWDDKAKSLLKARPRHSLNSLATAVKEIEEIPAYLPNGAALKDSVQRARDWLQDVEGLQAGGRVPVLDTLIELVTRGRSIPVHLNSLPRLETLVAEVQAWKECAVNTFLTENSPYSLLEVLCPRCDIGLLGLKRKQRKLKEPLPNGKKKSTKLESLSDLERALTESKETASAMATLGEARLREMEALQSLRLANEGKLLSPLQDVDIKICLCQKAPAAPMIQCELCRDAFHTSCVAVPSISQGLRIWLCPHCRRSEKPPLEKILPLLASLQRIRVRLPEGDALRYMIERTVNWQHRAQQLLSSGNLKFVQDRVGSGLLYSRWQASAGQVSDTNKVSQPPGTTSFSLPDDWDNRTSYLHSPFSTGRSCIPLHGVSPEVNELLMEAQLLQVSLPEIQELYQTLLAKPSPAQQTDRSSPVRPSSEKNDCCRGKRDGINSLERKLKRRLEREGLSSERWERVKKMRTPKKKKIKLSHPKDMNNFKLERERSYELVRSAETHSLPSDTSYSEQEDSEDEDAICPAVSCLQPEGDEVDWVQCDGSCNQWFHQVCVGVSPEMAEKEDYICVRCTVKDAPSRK

Row | SMILES | Potency | activity change, negative = inhibition
1 | Cc1cccc(Cn2c(SCCCO)nc3c2c(=O)n(C)c(=O)n3C)c1 | inactive | 
2 | CCNC(=O)c1ccc(CSc2nc3ccncc3n2Cc2ccc(F)cc2)cc1 | inactive | 
3 | O=C(NCc1ccccn1)c1ccc(C2CCCCC2)cc1 | inactive | 
4 | O=C(CCc1ncc(-c2ccccc2)o1)Nc1ccncc1 | inactive | 
5 | CCOc1ccc(N2C(=O)c3ccccc3NC2(CC)CC)cc1 | inconclusive: 5.01 µM [inhibitor, full curve, poor fit] | 
6 | Cc1c(NC(=O)c2cc(-c3ccc(Cl)cc3)on2)c(=O)n(-c2ccccc2)n1C | inconclusive: 15.8 µM [inhibitor, partial curve, poor fit] | 
7 | COc1ccccc1N1CCC(N[C@H](c2cccs2)C2CC(O)C2)CC1 (stereo not given in full) | inactive | 
8 | C=C(C)COc1ccc2c(C)c(CCC(=O)NCC(O)c3ccccc3)c(=O)oc2c1 (stereo not given) | inconclusive: 11.2 µM [inhibitor, partial curve, poor fit] | 
9 | Cc1cn2nc(C(=O)Nc3ccc(OC(F)(F)F)cc3)cc2c(N2CCSCC2)n1 | active: 25.1 µM | 
10 | CNC(=O)NC(=O)C(C)Sc1cc(C)c2cccc(C)c2n1 (stereo not given) | inactive | 
11 | COc1ccccc1C(=O)Nc1ccc2oc(-c3ccc(F)cc3)cc(=O)c2c1 | inactive | 
12 | COc1ccc(CCNC(=O)c2ccc3c(c2)nc2n3CCC(C)C2)cc1OC (stereo not given) |  | inconclusive: -32.8% [inhibitor]
13 | CN1CCN(C(=O)CCn2cnc3c2c(=O)n(C)c(=O)n3C)CC1 | inactive | 
14 | CC(=O)Nc1ccc(CN2CCn3c(nnc3-c3ccncc3)C2)cc1 | inactive | 
15 | COC(=O)c1cc(OC(=O)c2cc3ccccc3cc2OC)cc(C(=O)OC)c1 | inactive | 
16 | COc1ccc(NC(=O)C2CC(=O)N(C(C)C)C2)cc1S(=O)(=O)N1CCCCC1 (stereo not given) | inactive | 
17 | CCCn1nccc1S(=O)(=O)N1CCc2nc(-c3ccccc3)[nH]c2C1 | inconclusive: 15.8 µM [inhibitor, partial curve] | 
18 | COC(=O)C1=C(C)N=C2SC=C(CC(=O)N3CCCC3)N2C1c1ccccc1Cl (stereo not given) | inconclusive: 31.6 µM [inhibitor, single point] | 
19 | CC(=O)c1ccc(NC(=O)C2CCC(CNS(=O)(=O)c3cccs3)CC2)cc1 (stereo not given) | inconclusive: 10 µM [inhibitor, partial curve, poor fit] | 
20 | COc1ccc(NC(=O)Cc2c[nH]c3ncc(-c4cnn(C)c4)cc23)cn1 | inconclusive: 28.2 µM [inhibitor, single point] | 
21 | Cc1cccc(C)c1NC(=O)Cn1ccn2nc3c(c2c1=O)CCCCC3 | inactive | 
22 | Cc1cc(OCC(=O)Nc2ccc(NC(=O)C3CC3)cc2C(F)(F)F)ccc1Cl | inactive | 
23 | Cc1ccc(-c2noc([C@@](C)(N)Cc3ccccc3)n2)nn1 | inconclusive: 25.1 µM [inhibitor, partial curve, poor fit] | 
24 | Nc1[nH]c(/C=C2/CCCCC2n2[nH]c(=O)n(-c3ccccc3)c2=O)c(Cc2ccccc2)[n+]1Cc1ccccc1 (stereo not given) | inconclusive: 25.1 µM [inhibitor, partial curve, poor fit] | 

Row | SMILES | Potency | activity change, negative = inhibition
25 | COc1ccc(S(=O)(=O)N2C[C@@H]3C[C@H](C2)c2c(-c4ccc(OC(F)(F)F)cc4)ccc(=O)n2C3)cc1 | inactive | 
26 | Cc1ccc(NC(=O)c2ccc(CN3C(=O)CCn4nc(C)cc43)cc2)c(Cl)c1 | inconclusive: 50.1 µM [inhibitor, single point] | 
27 | CSc1nc(N)c(C(=O)Nc2ccc([N+](=O)[O-])cc2)s1 | inconclusive: 22.4 µM [inhibitor, partial curve, poor fit] | 
28 | Cc1cc(C)cc(C(=O)NC2CCN(c3cc(-c4ccccc4)[nH]n3)C2)c1 (stereo not given) | inconclusive: 10 µM [inhibitor, partial curve, poor fit] | 
29 | COc1ccc(Nc2nc(Nc3ccc(C)c(C)c3)nc3nccnc23)cc1 | inactive | 
30 | COc1ccccc1-c1ccc2ncc(Nc3ccccc3)n2n1 | inconclusive: 35.5 µM [inhibitor, single point] | 
31 | COc1ccccc1-c1nc(C#N)c(NCc2ccccc2Cl)o1 | inconclusive: 39.8 µM [inhibitor, single point] | 
32 | C/C(=N\NC(=O)c1cccc(Br)c1)C(C)C | inactive | 
33 | Cc1ccc(CN2CC[C@@](C)(O)[C@H](N3CCCC3)C2)s1 | inconclusive: 15.8 µM [inhibitor, single point] | 
34 | COc1ccc(-c2ccc(CCC(=O)NC(C)C)o2)cc1 | inconclusive: 20 µM [inhibitor, partial curve, poor fit] | 
35 | CCn1cc(-c2ccncc2)cc1C(=O)NCc1cccc(OC)c1 | inconclusive: 22.4 µM [inhibitor, single point] | 
36 | COCCCNC(=O)c1ccc(-n2c(-c3ccccc3)cc3c2CCC(C)C3)cc1 (stereo not given) | inconclusive: 2.82 µM [inhibitor, full curve, poor fit] | 
37 | O=C(c1cccc(C(F)(F)F)c1)N1CCCN(c2nnc3ccc(Cl)cn23)CC1 | inconclusive: 25.1 µM [inhibitor, partial curve, poor fit] | 
38 | C=CCc1c(C)nc2nc(SCC(=O)Nc3ccc(C)c(C)c3)nn2c1C | inactive | 
39 | Fc1ccc(CNCc2ccc(-c3ccccc3)o2)cc1 | inactive | 
40 | Cc1cc(C)cc(Nc2nc(NC3CCCC3)nc3c2cnn3-c2ccccc2)c1 | inconclusive: 31.6 µM [inhibitor, partial curve, poor fit] | 
41 | Cc1cccc(CSc2nc(-c3cccs3)ccc2C#N)c1 | inconclusive: 17.8 µM [inhibitor, partial curve, poor fit] | 
42 | Cc1nc(CN2Cc3nc(N(C)c4ccccc4)ccc3OCC2=O)cs1 | inconclusive: 31.6 µM [inhibitor, single point] | 
43 | O=C(c1ccsc1)N1CCCC1c1nc(C2CCOCC2)no1 (stereo not given) | inconclusive: 8.91 µM [inhibitor, partial curve, poor fit] | 
44 | c1cncc(-c2nnc([C@H]3CCN(Cc4c[nH]c5ccccc45)C3)o2)c1 | inconclusive: 56.2 µM [inhibitor, partial curve, poor fit] | 
45 | COc1cccc(NC(=O)C2CCN(c3nnc(C)c4c(C)n(-c5ccccc5)nc34)CC2)c1 | inconclusive: 15.8 µM [inhibitor, partial curve, poor fit] | 
46 | COCc1nc2nc(-c3ccccc3)c(Nc3ccncc3)cc2n1C | inconclusive: 39.8 µM [inhibitor, partial curve, poor fit] | 
47 | CC(C(=O)N1CCCN(c2cc(-c3ccc(Cl)cc3)[nH]n2)CC1)c1ccccc1 (stereo not given) | inconclusive: 22.4 µM [inhibitor, partial curve] | 
48 | COc1ccc(-c2cc(N3CCCC(NC(=O)c4cccn4C)C3)n[nH]2)cc1 (stereo not given) | inconclusive: 35.5 µM [inhibitor, partial curve, poor fit] | 

Row | SMILES | Potency | activity change, negative = inhibition
49 | Cc1ccc(S(=O)(=O)N(CC(=O)NCCc2ccc(Cl)cc2)c2ccccc2C)cc1 | inconclusive: 3.55 µM [inhibitor, full curve, poor fit] | 
50 | COc1cc(OC)c(C(=O)N2CCCC[C@H](N(C)C)C2)cc1OC | inactive | 
51 | CCN1CCN(c2nc(-c3ccccc3)nc3cc(OC)c(OC)cc23)CC1 | inactive | 
52 | CCc1ccccc1NC(=O)N1CCc2c([nH]c3ccccc23)C1c1ccc(C)cc1 (stereo not given) | inconclusive: 28.2 µM [inhibitor, single point] | 
53 | O=[N+]([O-])c1cccc(N/N=C/c2ccccn2)c1 | inactive | 
54 | Cc1ccc2ncc(C(=O)N3CCN(c4ccccc4F)CC3)c(=O)n2c1 | inactive | 
55 | CC(C)c1nc2nccc(-c3cc4ccccc4o3)n2n1 | inactive | 
56 | COc1ccc(CCc2nnc(NC(=O)c3ccccc3)s2)cc1 | inactive | 
57 | CCN1c2cc(C(=O)Nc3ccc(C(=O)OC)cc3)ccc2C(=O)N2CCCC21 (stereo not given) | inconclusive: 20 µM [inhibitor, partial curve, poor fit] | 
58 | CC(C)NC(=O)c1cccc(NC(=O)CCCC(=O)O)c1 | inactive | 
59 | COc1ccccc1OC1(C(=O)O)CCN(Cc2ccc(-c3ccn[nH]3)o2)CC1 | inconclusive: 20 µM [inhibitor, partial curve, poor fit] | 
60 | CNC(=O)c1cccc(-c2cnc(Nc3cccc(F)c3)c3c2CCO3)c1 | active: 31.6 µM | 
61 | CCC(C(=O)Nc1ccc(OC)cc1)n1nnc(C(=O)OC)c1C(=O)OC (stereo not given) | inactive | 
62 | O=C(Nc1ccc2c(N3CCCC3)ncnc2c1)c1ccc(Br)cc1 | inconclusive: 28.2 µM [inhibitor, single point] | 
63 | CC1(C)CC(Nc2cc(C(=O)N3CCOCC3)c3ccccc3n2)CC(C)(C)N1 | inconclusive: 28.2 µM [inhibitor, partial curve, poor fit] | 
64 | CN(Cc1ccccc1)C(=O)c1ccc(N2CC3CC(C2)[C@H]2CCCC(=O)N2C3)nc1 (stereo not given in full) | inconclusive: 22.4 µM [inhibitor, single point] | 
65 | CCCCn1nc(C(=O)NCC(c2ccco2)N2CCCCC2)c2ccccc2c1=O (stereo not given) | inactive | 
66 | O=C(NC1CC1)c1nc(-c2cccnc2)c2cnccn12 | inconclusive: 15.8 µM [inhibitor, full curve, poor fit] | 
67 | CN(C)C(=O)CN1CCN(C(C(=O)O)c2cn(CC(=O)O)c3cc(Cl)ccc23)CC1 (stereo not given) | inactive | 
68 | CC(C)Sc1nnc2c3cc(F)ccc3n(C)c2n1 | inactive | 
69 | Cn1cc(CN2CCn3c(nnc3[C@@H]3C[C@@H](O)CN3Cc3ccccc3)C2)c2ccccc21 | inconclusive: 15.8 µM [inhibitor, single point] | 
70 | COc1ncccc1-c1cnc2n[nH]c(-c3ccc(F)cc3C)c2n1 | inconclusive: 44.7 µM [inhibitor, partial curve, poor fit] | 

From PubChem BioAssay AID1347165 (National Center for Advancing Translational Sciences (NCATS), 2019)
